# Test results reported in the supplement of paper PMC11417369.
# ± gives the standard deviation of the averaged measurements. Some of the results follow.
# Tested on: PfAP2-EXP AP2 domain (GST-tagged)
# Assay: gcPBM binding intensity (ln(normalized median fluorescence intensity)); higher = stronger DNA binding
# Summary of the method: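 Using an Agilent 4 × 180k array, primer-extended double-stranded 36-bp intergenic genomic probes and negative controls were exposed for 1 h to GST-fused P. falciparum DNA-binding domains expressed in E. coli. Binding was carried out in 1× PBS with 1% milk, 0.2 mg/ml BSA, 0.5% salmon testes DNA and 0.03% Triton X-100, and protein was detected with Alexa488 anti-GST antibody and a 488 nm scan. Binding intensity is the highest Masliner-normalised natural-log median intensity across replicate spots of either probe orientation.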
row,Sequence,gcPBM binding intensity (ln)
1,TCAATTAGACGAAAATGTACATATGTATATATTTTT [XGTACX_site5027],8.32 ± 0.37
2,AAAATAAACTATAGTACACACTTATTATTATGAAAT [CACACA_site5488],8.52 ± 0.3
3,GATATATTTTATATATGTACATACAAGGGTAAATAT [XGTACX_site1202],8.81 ± 0.36
4,AAAATATGTAGCTACACACACATAAACAAAATAACA [CACACA_site1007],8.84 ± 0.48
5,ATTTTATAAAGGAAGTGTACTAATAAATTCAAATTA [XGTACX_site3922],8.57 ± 0.11
6,TCGATGTTGGTAGGATGTACGGTACCGGTAGTATTT [XGTACX_site4214],8.85 ± 0.64
7,AAAAAAGAATTGTGCACACACAAAAAATGTTCATAA [CACACA_site1103],8.53 ± 0.11
8,AAGAAAAAATATACTTCACACATTTAATATATAATT [CACACA_site4919],8.22 ± 0.41
9,AAAAAAAAAAAAAAATGTACAAATATATACATATAT [XGTACX_site935],8.21 ± 0.21
10,TAAAATATTTTTTGTAGTACCTTAATATTTTTGAAG [XGTACX_site3048],8.48 ± 0.34
11,GTGTAATATGAAATGTGTACACACGCACACACAAAA [XGTACX_site6180],8.88 ± 0.2
12,TAAATATAATCTAAATGTACATGACATAATTTTTTT [XGTACX_site2856],8.05 ± 0.32
13,AATAAATACTAAATGGTGCAAAATTTTTTAACACTG,8.57 ± 0.18
14,TTTCAAAAATGAGTTACACACACACCGATATATATA [CACACA_site5263],8.79 ± 0.61
15,AGCCACCATATTTACACACACATCAAAATGTATTAA [CACACA_site1816],8.71 ± 0.4
16,TATATATATTATAGATGTACTTTCATATATATGTTT [XGTACX_site8189],8.57 ± 0.099
17,ATAGTATCTGGTAGCTGTACGAGTCGTAGAGTCTAA [XGTACX_site2539],8.51 ± 0.47
18,ATATACAATACAAAAACACACACAAAAAAAGAAAAG [CACACA_site8668],8.8 ± 0.54
19,ATGTATATTTTTAAAAGTACAGAATTTTCATATGAA [XGTACX_site5754],8.59 ± 0.55

row,Sequence,gcPBM binding intensity (ln)
1,TATTTATTTATGTACGCACACAGTTGATATTAATTC [CACACA_site2754],8.81 ± 0.33
2,GAAAAAGATGCGCATACACACAGATGAATAACAAAA [CACACA_site1628],8.94 ± 0.59
3,ATATATATATATATATGTACATAATTAATAGCATAT [XGTACX_site1428],10.2 ± 0.36
4,ATCATATTTATGTTGGTGCATTATACATAAAGTTTA [GTGCAC_site9574],9.39 ± 0.68
5,TATATAATAAGAAAATATGTGCGTAGTTCAGCAAAA [XGTACX_negctrl_site304],8.69 ± 0.39
6,AAAATAAGAAAACAAATGCACACCATTTATATAGAT [CACACA_site1055],8.7 ± 0.26
7,AATTGGATAAACCAATTGGATTATAATACGATATAT [CACACA_negctrl_site275],8.52 ± 0.35
8,GAAAAATATATTCTGGTGCATGAATAAAATCATAAA,8.51 ± 0.16
9,CACAAAAAAAATTATACACACACACCCATATATATA [CACACA_site8255],8.77 ± 0.24
10,ATAATTGTTTCTTTCTCCTTTTTATTTCATTTTAAA [CACACA_negctrl_site964],8.86 ± 0.52
11,AAAGGATATATCCAGAGTACATATTCTGTGTAATAC [XGTACX_site1547],8.7 ± 0.29
12,TATTCATCACTTTTTTGTACTTATGGATAAAATTTT [XGTACX_site3349],8.79 ± 0.42
13,TGTCTTATTTATATTACACACTATATGAAAAAATAT [CACACA_site6807],8.59 ± 0.45
14,TTAATATGAAAACTCTGTACCCAACCTTCTTATGGA [XGTACX_site2126],8.39 ± 0.4
15,TATATAAATATATAATGTACGTTTTAAAAATAATAT [XGTACX_site3881],8.71 ± 0.42
16,ATATATTAATATGTGTGTACTTAACCATTCATATGT [XGTACX_site7395],8.68 ± 0.42
17,TTAATATATAATAAATTTTTTTTTTTTTTTTTTTTT [CACACA_negctrl_site892],8.945 ± 0.021
18,CTTGGTAGTTTTTTCTTATAATCTAATTATTAATAA [CACACA_negctrl_site153],8.49 ± 0.42
19,TTTTAATAATATGGATGTACATAAAAATAAATAAAT [XGTACX_site7937],9.04 ± 0.38

row,Sequence,gcPBM binding intensity (ln)
1,TTAACCACTAAAAGTACACACATATATACCTATATA [CACACA_site6026],8.45 ± 0.28
2,ATATAATAAATGTAGGTGCATAAAAATATTTTGTTA [GTGCAC_site9780],8.82 ± 0.33
3,TAGTATTATTTTTTTTGTACATATAAATGTAAAATA [XGTACX_site5282],8.34 ± 0.27
4,TTTTTTTAAAATATGAGTACATAATATTGTAAAAAT [XGTACX_site6536],8.36 ± 0.37
5,AAAACATAAATACATACACACATAATATATATTAAG [CACACA_site4239],8.59 ± 0.51
6,ATACATATACACATTTGTACATATTCCTTTTTATCG [XGTACX_site1731],8.79 ± 0.29
7,TCTTGTTTTAATTTTTATATTATTATTTAGATATAT [CACACA_negctrl_site921],8.56 ± 0.37
8,TTATTTAAAATGAAAAGTACATATTACTTTCTCACA [XGTACX_site5043],8.21 ± 0.16
9,TACTAAATGATCATATGTACACATGTTTACTTTTTA [XGTACX_site1253],8.79 ± 0.57
10,AATATATATATATATATATATATTTCAATATATAAA [XGTACX_negctrl_site187],8.56 ± 0.092
11,ATGATAATTATTAAGGGTACATAAAAATATATCTAT [XGTACX_site8969],8.4 ± 0.33
12,ATTATTTAACATGTGGACACAAAAATTTAAGGGTTC [CACACA_negctrl_site1269],8.75 ± 0.4
13,TATAATTATTTTTTCACACATATGTATTTATATATA [CACACA_site4205],8.88 ± 0.43
14,AGATATATATATAGGTGTACTGGAATGAAATTGTTT [XGTACX_site8200],8.78 ± 0.37
15,AATATATTAAATATTACACACATACATTTAGTGGAA [CACACA_site8609],8.18 ± 0.34
16,TACTAAGAAAAGAACTGTACATAGAATATACCCAAG [XGTACX_site4757],8.56 ± 0.35
17,AATATCAAAAAAAAAAAAAAAAAAAAAAAAAAAAAA [CACACA_negctrl_site288],8.09 ± 0.3
18,AAGGGAAAAAAAAAAGCACACATACGTAAATATATA [CACACA_site7960],8.63 ± 0.61
19,TATTTCACACAGTATATATATATATATATATATATA [TGCATGCA_negctrl_site118],10.2 ± 0.38
